Laboratory results reported in paper PMC4336329 (PLoS ONE, 2015).
The whole screen tested about 310,000 compounds, of which about 2,200 (0.71%) showed an effect of 50% or more. Effects have a minus sign here. This is one part of the list.

Biological target: human ether-à-go-go-related gene (hERG) potassium channel (human, UniProt Q12809)
Test: primary screen, population patch clamp on CHO cells stably expressing hERG

human ether-à-go-go-related gene (hERG) potassium channel, sequence (Q12809 whole entry, looked up): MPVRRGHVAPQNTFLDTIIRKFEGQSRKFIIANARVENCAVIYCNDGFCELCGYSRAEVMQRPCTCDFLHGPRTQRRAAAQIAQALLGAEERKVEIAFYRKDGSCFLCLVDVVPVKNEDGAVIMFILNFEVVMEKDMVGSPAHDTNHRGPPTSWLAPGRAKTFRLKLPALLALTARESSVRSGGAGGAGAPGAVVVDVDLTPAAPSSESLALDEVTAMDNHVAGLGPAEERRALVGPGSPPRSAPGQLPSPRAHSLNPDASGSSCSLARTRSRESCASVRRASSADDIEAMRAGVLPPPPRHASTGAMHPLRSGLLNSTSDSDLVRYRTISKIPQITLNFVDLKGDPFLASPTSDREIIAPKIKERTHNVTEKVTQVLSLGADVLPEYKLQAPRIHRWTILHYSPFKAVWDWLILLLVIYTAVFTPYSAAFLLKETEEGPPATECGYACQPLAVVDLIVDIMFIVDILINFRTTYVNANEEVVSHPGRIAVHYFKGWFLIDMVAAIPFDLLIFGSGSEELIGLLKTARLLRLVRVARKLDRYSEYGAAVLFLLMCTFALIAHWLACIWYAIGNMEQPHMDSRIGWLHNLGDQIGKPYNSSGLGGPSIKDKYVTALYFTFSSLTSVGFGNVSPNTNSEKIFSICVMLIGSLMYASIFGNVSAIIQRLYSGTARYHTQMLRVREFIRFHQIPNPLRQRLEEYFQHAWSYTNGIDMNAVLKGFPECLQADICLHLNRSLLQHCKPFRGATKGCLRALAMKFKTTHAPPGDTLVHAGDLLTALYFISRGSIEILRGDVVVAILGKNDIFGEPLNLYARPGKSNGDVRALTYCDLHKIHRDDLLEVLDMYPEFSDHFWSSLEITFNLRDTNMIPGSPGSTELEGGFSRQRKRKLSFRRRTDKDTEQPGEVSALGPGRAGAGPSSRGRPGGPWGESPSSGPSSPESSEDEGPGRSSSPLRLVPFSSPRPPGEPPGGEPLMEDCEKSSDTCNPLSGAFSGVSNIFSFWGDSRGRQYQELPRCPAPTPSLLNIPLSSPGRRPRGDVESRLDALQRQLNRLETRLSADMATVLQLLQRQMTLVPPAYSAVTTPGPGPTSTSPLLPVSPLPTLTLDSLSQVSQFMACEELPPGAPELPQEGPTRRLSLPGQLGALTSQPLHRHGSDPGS

SMILES | hERG current change (%, negative = inhibition) at 1uM [%]
Cc1nc(NC(=O)CSc2nnc(N)s2)c(Cl)cc1Cl | 16.2
COc1cc2c(cc1OC)CN(Cc1cc(=O)oc3cc(C)c(Cl)cc13)CC2 | 9.06
CN1/C(=C/C2CC(=O)N(c3cccc4ccccc34)C2=O)C(C)(C)c2ccccc21 (stereo not drawn) | 3.51
Cn1c(=O)c2[nH]c(-c3cccnc3)nc2n(C)c1=O | -0.455
CCCn1cc(SCC(=O)Nc2cc(C)on2)c2ccccc21 | -2.82
Cc1cc2c(cc1S(=O)(=O)N1CCN(c3ccc(Cl)cc3)CC1)OCCN2C | 10.9
Cc1nc2c(=O)n(-c3ccc(F)cc3F)nc(C)c2s1 | 20
CC(C)(C)c1ccc(NC(=O)Cn2cnc3cc([N+](=O)[O-])ccc3c2=O)cc1 | 0.367
CCOC(=O)c1cc(-c2ccccc2)n(CCC(=O)NC(C)CC)c1C (stereo not drawn) | -5.34
CCCNC(=O)C(Cc1cccc(C#N)c1)NC(=O)c1cccc([N+](=O)[O-])c1 (stereo not drawn) | 8.85
NC(=O)c1cc[n+](Cc2ccccc2Cl)cc1.[Br-] | 13.3
CCOC(=O)c1c(N)sc2c1CCN(CCc1ccccc1)C2 | 7.93
CCNC(=S)N/N=C/c1sc(N2CCCCC2)nc1-c1cccs1 | -1.33
O=C1C(O)CC2c3ccccc3CC3(CCCC3)N12 (stereo not drawn) | 10
Cn1c(N)c(C(=O)COC(=O)/C=C/c2ccc(S(=O)(=O)N3CCOCC3)cc2)c(=O)n(C)c1=O | -4.31
CC(C)(C)OC(=O)NCCCCCc1nnc(SCc2cccc(F)c2)o1 | 1.64
CC(=O)Nc1ccc(NC(=O)Nc2cccc(Cl)c2)cc1 | 13.3
CCOc1ccc(NS(=O)(=O)c2ccc(C(=O)NCC3(N4CCCCC4)CCCCC3)cc2)cc1 | 8.39
COCCN(C(=S)Nc1cccc(OC)c1)C(C)c1cccs1 (stereo not drawn) | 1.03

SMILES | hERG current change (%, negative = inhibition) at 1uM [%]
Cc1cc(N2CCCC2=O)c(N)cc1N | 15
Cn1c(/C=C/c2ccc(Cl)cc2)c([N+](=O)[O-])c(=O)n(C)c1=O | 6.85
CCOC(=O)c1cccc(C2=CC(=O)CC(C)(C)C2)c1 | 8.16
O=C(O)c1cc(-c2cccs2)nc2cc3c(cc12)OCCO3 | -2.68
COc1cc(NC(=O)N2CCNC2=O)cc(C(=O)Nc2cccc(C(F)(F)F)c2)c1 | -1.8
COCCCNC(=O)/C(C#N)=C/c1ccc(F)cc1 | 10.1
CCOc1ccc(S(=O)(=O)N2CCOCC2)cc1NC(=O)CN1C(=O)NC2(CCCCC2)C1=O | -1.58
COc1cc(C(=O)NC(c2ccccc2)c2ccccc2)cc(Cl)c1OC | 4.19
COc1cccc(NC(=O)N2CCCC(C(=O)NC3CCCCC3C)C2)c1 (stereo not drawn) | 12
O=S(=O)([N-]c1nc2ccccc2nc1-n1cc[n+](Cc2ccccc2)c1)c1ccccc1 | 7.68
COC(=O)C(C(C)C)N1CCc2c(C)nc3c(C#N)cnn3c21 (stereo not drawn) | 10.3
CCOC(=O)N1CCN(C(=S)NC(=O)C23CC4CC(CC(C4)C2)C3)CC1 | 6.06
Cc1cnc(C(=O)NCCc2ccc(C(F)(F)F)cc2)cn1 | 11.7
Cc1ccc(S(=O)(=O)N2CCC(C(=O)OC(C)C(=O)NC3CCCCC3C)CC2)cc1C (stereo not drawn) | 6.11
Cc1ccc(N2C(=O)c3ccc(N)cc3C2=O)cc1C | 4.13
O=C(Nc1ccc(CN2CCOCC2)cc1)c1ccc2ccccc2c1 | -23.7
Cc1ccc(-c2nnc(SCC(=O)N3CCCC3)o2)cc1 | 4.08
CN(C)c1ccc(CN2CCC(C(N)=O)CC2)cc1.O=C(O)C(=O)O | 15.1
O=S1(=O)CCC(SCc2nc3sccn3c2Br)C1 (stereo not drawn) | 3.17

SMILES | hERG current change (%, negative = inhibition) at 1uM [%]
COc1ccc(-c2cc(C)no2)cc1S(=O)(=O)N(C)c1ccc(C)c(C)c1 | 9.2
C=CCn1c(SCCN2CCCCC2)nc2c1c(=O)[nH]c(=O)n2C | -27.4
Cc1cc(C)cc(CC(Cc2nc3ccccc3[nH]2)c2nc3ccccc3[nH]2)c1 (stereo not drawn) | 12.7
CCS(=O)(=O)n1nc(C(=O)N2CCOCC2)nc1N | 11.4
COc1nc(Cl)cn(-c2ccc(C)cc2)c1=O | -3.71
O=C(Nc1ccc(Cl)cc1C(=O)NCCN1CCOCC1)c1ccco1 | -1.49
O=C(CSc1nnc(CN2CCOCC2)n1-c1ccc(Cl)cc1)N1CCc2ccccc21 | 14.2
CCOC(=O)c1ccc(N2C(=O)C(CC(N)=O)N(CCc3ccc(OC)c(OC)c3)C2=S)cc1 (stereo not drawn) | 13.9
CCc1ccc(NC(=O)C2CCN(S(=O)(=O)c3ccc4c(c3)NC(=O)C(C)S4)CC2)cc1 (stereo not drawn) | 17
Cc1ccc(NC(=O)CCc2c(C)nn(-c3ccc(N4CCOCC4)nn3)c2C)cc1 | -2.77
O=C(Nc1cccc(-c2cccc(Cl)c2)c1)C1CCN(Cc2ccccn2)CC1 | 1.65
c1ccc(-c2nc(N3CCN(c4ccccc4)CC3)nc(-n3ccnc3)n2)cc1 | 4.5
CC(c1ccco1)N(C(=O)c1ccc(C(F)(F)F)cc1)c1ccccn1 (stereo not drawn) | 3.77
Clc1cncc(Cl)c1N/N=C/c1ccccc1 | 6.18
COCCNC(=O)CN(Cc1cccs1)C(=O)CCC(=O)Nc1nccs1 | 15.8
N#CC1=C(S)N(c2ccc(F)cc2)C2(CCCCC2)NC1=O | -6.02
Oc1ccc(F)c2cccnc12 | 14.3
Cc1nc2cc(-c3cccc(F)c3)nn2c(C)c1CCC(=O)NC(C)CCc1ccco1 (stereo not drawn) | -11.6
CCN(CC)c1ccc(NC(=O)c2c(OC)cccc2OC)c(C)c1 | 11.6
